# PubChem BioAssay (Tox21)
# Several values for one entry are separate records, joined by “and”; a condition that tells them apart may be missing. Equal values may be shown once. Activity calls are given as the source filed them. Unless noted, calls come from the whole dose curve; as a rule, active = well fitted curve in the direction sought with a large enough effect in the repeat runs; inconclusive = weak or mixed curves; inactive = no such curve, though single readings can be large; an effect the other way counts as inactive or inconclusive.
# Tests used:
# [1] = qHTS assay for small molecule agonists of the p53 signaling pathway (AID 651631; calls by dose curve; note: nearly all actives have a fitted effect of over 15% in size; for activation: % is set by controls: 0 for no effect and ±100 for the full control effect); conditions: HCT-116 p53RE-bla reporter, beta-lactamase FRET ratio, 16 h; activation: at 73.3 µM (top of the series) unless noted
# Procedure, shortened: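 Readout was fluorescence from the LiveBLAzer FRET substrate, applied for 2 h at room temperature after 16 h compound exposure at 37 °C. Cells were the p53RE-bla HCT-116 line, with beta-lactamase driven by p53 response elements.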
# [2] = qHTS assay for small molecule disruptors of the mitochondrial membrane potential (AID 720635); conditions: HepG2 mitochondrial membrane potential, Mito-MPS dye ratio; ratio activity, negative = MMP loss: at 83.2 µM (top of the series) unless noted
# Procedure, shortened: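 HepG2 cells (2,000/well) attached overnight at 37C, then took compound for 1 hr at 37C, 5% CO2. Mito-MPS dye was added for 30 min; fluorescence was read at 490/535 nm (monomers) and 540/590 nm (aggregates).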
# [3] = biological target: Estrogen receptor (Homo sapiens) (UniProt P03372); test: qHTS assay to identify small molecule agonists of the estrogen receptor alpha (ER-alpha) signaling pathway using the BG1 cell line (AID 743079); conditions: BG1Luc4E2 cells, ERE-luciferase agonist, 22 h; activation: at 70.3 µM (top of the series) unless noted; note: nearly all actives have a fitted effect of over 20% in size
# UniProt P03372, sequence (P03372 whole entry, looked up): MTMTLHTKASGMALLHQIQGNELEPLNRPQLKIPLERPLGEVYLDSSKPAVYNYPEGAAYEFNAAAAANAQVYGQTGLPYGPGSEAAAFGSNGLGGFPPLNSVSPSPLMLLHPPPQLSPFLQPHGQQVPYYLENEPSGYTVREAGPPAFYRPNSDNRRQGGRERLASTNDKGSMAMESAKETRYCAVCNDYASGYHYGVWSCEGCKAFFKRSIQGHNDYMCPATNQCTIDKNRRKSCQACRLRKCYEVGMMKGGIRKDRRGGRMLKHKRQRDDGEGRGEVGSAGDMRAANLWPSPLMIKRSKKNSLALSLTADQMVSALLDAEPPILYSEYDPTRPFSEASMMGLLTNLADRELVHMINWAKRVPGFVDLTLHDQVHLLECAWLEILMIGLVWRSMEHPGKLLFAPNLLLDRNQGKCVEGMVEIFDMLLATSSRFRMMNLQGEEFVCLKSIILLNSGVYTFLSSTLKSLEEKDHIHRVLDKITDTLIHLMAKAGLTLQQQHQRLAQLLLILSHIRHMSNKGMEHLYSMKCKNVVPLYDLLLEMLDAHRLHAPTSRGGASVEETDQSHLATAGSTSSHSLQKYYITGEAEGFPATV
# [4] = qHTS assay to identify small molecule antagonists of the estrogen receptor alpha (ER-alpha) signaling pathway using the BG1 cell line (AID 743080; calls by dose curve;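 note: BG1 cells stimulated with 17beta-estradiol alongside compound; nearly all actives have a fitted effect of over 25% in size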); conditions: BG1Luc4E2 ERE-luciferase antagonist mode, luminescence; activity change, negative = inhibition: at 70.3 µM (top of the series) unless noted
# Procedure, shortened: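 BG1Luc4E2, endogenous ER-alpha, 4xERE-luc; 5 d charcoal-stripped FBS, phenol red free; 24 h plating; cpd + 17beta-estradiol 21.5 h, 37 C/5% CO2; CellTiter-Fluor viability 30 min, then ONE-Glo luciferase 30 min RT.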
# [5] = qHTS assay to identify small molecule antagonists of the estrogen receptor alpha (ER-alpha) signaling pathway using the BG1 cell line - cell viability counter screen (AID 743081); conditions: BG1Luc4E2 viability, CellTiter-Fluor, 22 h; activity change, negative = cytotoxicity: at 70.3 µM (top of the series) unless noted;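 note: compound given together with 17beta-estradiol as the ER stimulus; nearly all actives have a fitted effect of over 45% in size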
# [6] = qHTS assay for identifying genotoxic compounds that show differential cytotoxicity against isogenic chicken DT40 cell lines with known DNA damage response pathways - wild type cell line (AID 743012); conditions: DT40 wild type chicken cells viability, CellTiter-Glo, 40 h; activity change, negative = cytotoxicity: at 68.4 µM (top of the series) unless noted; note: nearly all actives have a fitted effect of over 60% in size
# Procedure, shortened: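 Luminescent ATP viability signal (CellTiter-Glo, 30 min RT) recorded after wild type DT40 cells were incubated with compounds for 40 h at 37 C/5% CO2.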
# [7] = biological target: Peroxisome proliferator-activated receptor gamma (Homo sapiens) (UniProt P37231); test: qHTS assay to identify small molecule agonists of the peroxisome proliferator-activated receptor gamma (PPARg) signaling pathway (AID 743094; active = well fitted activation curve with a large enough effect in the signal ratio in the repeat runs, not every such curve was filed as active; inconclusive = weak or mixed curves, or effect the other way; inactive = no such curve, though single readings can be large or run the other way; the % refers to the signal ratio; for activation: % is set by controls: 0 for no effect and ±100 for the full control effect); conditions: HEK293H PPARg-UAS-bla, beta-lactamase FRET ratio, 17 h; activation: at 57 µM (top of the series) unless noted
# UniProt P37231, sequence (P37231 whole entry, looked up): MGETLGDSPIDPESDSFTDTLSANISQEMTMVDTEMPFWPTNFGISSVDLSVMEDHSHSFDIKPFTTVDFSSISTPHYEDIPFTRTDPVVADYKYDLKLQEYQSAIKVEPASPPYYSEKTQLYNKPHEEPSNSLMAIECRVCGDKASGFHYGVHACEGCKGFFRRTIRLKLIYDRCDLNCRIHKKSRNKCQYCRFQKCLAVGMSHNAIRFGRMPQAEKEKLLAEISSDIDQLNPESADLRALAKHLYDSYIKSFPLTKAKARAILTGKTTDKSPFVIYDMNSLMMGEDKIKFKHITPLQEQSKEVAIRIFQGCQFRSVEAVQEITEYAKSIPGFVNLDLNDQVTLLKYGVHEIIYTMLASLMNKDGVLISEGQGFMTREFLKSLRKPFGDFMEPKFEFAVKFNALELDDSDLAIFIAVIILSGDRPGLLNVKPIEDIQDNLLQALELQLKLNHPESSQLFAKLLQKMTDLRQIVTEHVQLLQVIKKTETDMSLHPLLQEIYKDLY
# Procedure, shortened: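 Reporter activation was scored by fluorescence of cleaved LiveBLAzer B/G substrate (1 h, room temperature) in PPARg-bla HEK293H cells previously treated 17 h at 37C with DMSO-dissolved compounds.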
# [8] = biological target: Glucocorticoid receptor (Homo sapiens) (UniProt P04150); test: qHTS assay to identify small molecule antagonists of the glucocorticoid receptor (GR) signaling pathway (AID 720692; active = well fitted inhibition curve with a large enough effect in the signal ratio in the repeat runs, not every such curve was filed as active; inconclusive = weak or mixed curves, or effect the other way; inactive = no such curve, though single readings can be large or run the other way; the % refers to the signal ratio); conditions: GR-bla HeLa, beta-lactamase FRET ratio, dexamethasone-stimulated, 18 h; activity change, negative = inhibition: at 58.5 µM (top of the series) unless noted
# UniProt P04150, sequence (P04150 whole entry, looked up): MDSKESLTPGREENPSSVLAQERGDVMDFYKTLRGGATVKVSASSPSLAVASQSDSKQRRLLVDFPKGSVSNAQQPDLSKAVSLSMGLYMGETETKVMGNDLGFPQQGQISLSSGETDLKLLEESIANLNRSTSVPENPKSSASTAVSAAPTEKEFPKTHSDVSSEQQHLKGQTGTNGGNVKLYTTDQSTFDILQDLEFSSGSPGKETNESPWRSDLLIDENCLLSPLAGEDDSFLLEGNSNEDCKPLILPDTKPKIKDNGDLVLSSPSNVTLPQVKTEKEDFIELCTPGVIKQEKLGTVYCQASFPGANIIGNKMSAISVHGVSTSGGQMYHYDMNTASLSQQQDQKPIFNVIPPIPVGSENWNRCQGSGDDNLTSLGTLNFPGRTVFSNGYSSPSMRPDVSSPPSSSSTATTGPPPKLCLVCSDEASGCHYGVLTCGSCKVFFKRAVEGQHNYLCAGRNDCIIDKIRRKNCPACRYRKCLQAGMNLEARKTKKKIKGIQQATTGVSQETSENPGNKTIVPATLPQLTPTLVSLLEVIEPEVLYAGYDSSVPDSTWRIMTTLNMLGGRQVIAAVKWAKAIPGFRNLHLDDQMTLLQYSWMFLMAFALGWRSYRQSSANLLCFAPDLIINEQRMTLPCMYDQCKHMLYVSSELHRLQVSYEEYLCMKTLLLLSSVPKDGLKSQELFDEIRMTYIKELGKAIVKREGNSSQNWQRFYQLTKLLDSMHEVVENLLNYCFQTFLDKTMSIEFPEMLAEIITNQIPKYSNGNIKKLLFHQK
# Procedure, shortened: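 Quantitative HTS in antagonist format: HeLa cells expressing endogenous GR and a stably integrated GRE-bla reporter, stimulated with 5 nM dexamethasone (final) alongside test compounds for 18 h.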
# [9] = qHTS assay to identify small molecule antagonists of the glucocorticoid receptor (GR) signaling pathway - cell viability counter screen (AID 720693); conditions: GR-bla HeLa viability, CellTiter-Glo luminescence, 18 h, with 5 nM dexamethasone present; viability change, negative = cytotoxic: at 58.5 µM (top of the series); note: nearly all actives have a fitted effect of over 55% in size
# [10] = qHTS assay to identify small molecule antagonists of the androgen receptor (AR) signaling pathway - cell viability counter screen (AID 743033; note: nearly all actives have a fitted effect of over 45% in size); conditions: AR-bla HEK293 viability, CellTiter-Glo luminescence, 16 h; activity change, negative = cytotoxicity: at 58.5 µM (top of the series) unless noted
# [11] = qHTS assay to identify small molecule antagonists of the androgen receptor (AR) signaling pathway using the MDA cell line - cell viability counter screen (AID 743041; note: nearly all actives have a fitted effect of over 45% in size); conditions: MDA-kb2 viability, CellTiter-Fluor, 16 h, cells co-treated with R1881 androgen agonist; viability change, negative = cytotoxic: at 70.3 µM (top of the series)
# Procedure, shortened: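 qHTS viability read-out; MDA-kb2 AR-luc; R1881-stimulated; 16 h exposure at 37C, 0% CO2; CellTiter-Fluor, 30 min; fluorescence intensity.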
# [12] = qHTS assay to identify small molecule antagonists of the thyroid receptor (TR) signaling pathway - cell viability counter screen (AID 743064); conditions: GH3.TRE-Luc viability, CellTiter-Fluor, 24 h; activity change, negative = cytotoxic: at 70.3 µM (top of the series) unless noted; note: nearly all actives have a fitted effect of over 50% in size
# Procedure, shortened: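 In-well cytotoxicity read by CellTiter-Fluor (30 min, 37 C) following 23.5 h exposure of GH3 cells bearing a TRE-luciferase sensor. Compounds were added alongside 1 nM (final) T3 to drive TR transactivation.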
# [13] = tested on: thyroid hormone receptor (rat, GH3 cells); test: qHTS assay to identify small molecule agonists of the thyroid receptor (TR) signaling pathway (AID 743066; calls by dose curve); conditions: GH3.TRE-Luc cells, TR agonist luciferase, 24 h; activation: at 83.9 µM (top of the series) unless noted
# [14] = biological target: Estrogen receptor (Homo sapiens) (UniProt P03372); test: qHTS assay to identify small molecule antagonists of the estrogen receptor alpha (ER-alpha) signaling pathway (AID 743069; active = well fitted curve in the direction sought with a large enough effect in the signal ratio in the repeat runs, not every such curve was filed as active; inconclusive = weak or mixed curves, or effect the other way; inactive = no such curve, though single readings can be large or run the other way; the % refers to the signal ratio; for activity, negative = inhibition: % is set by controls: 0 for no effect and ±100 for the full control effect); conditions: HEK293 ER-alpha-UAS-bla, beta-lactamase ratio, antagonist mode; activity, negative = inhibition: at 69.4 µM (top of the series) unless noted
# Procedure, shortened: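 Screening used a UAS-driven beta-lactamase reporter integrated into HEK293 cells expressing ER-alpha, stimulated with 17beta-estradiol alongside test compounds over 18 hr at 37C; signal came from LiveBLAzer B/G FRET fluorescence.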
# [15] = qHTS assay to identify small molecule antagonists of the estrogen receptor alpha (ER-alpha) signaling pathway - cell viability counter screen (AID 743074; calls by dose curve; note: nearly all actives have a fitted effect of over 45% in size)
# [16] = qHTS assay to identify aromatase inhibitors - cell viability counter screen (AID 743084); conditions: MCF-7 aro ERE viability, CellTiter-Fluor, 24 h; activity change, negative = cytotoxicity: at 70.3 µM (top of the series) unless noted;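 note: cells stimulated with testosterone during compound exposure; nearly all actives have a fitted effect of over 55% in size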; for activity change, negative = cytotoxicity: % is set by controls: 0 for no effect and ±100 for the full control effect
# [17] = qHTS assay for identifying genotoxic compounds that show differential cytotoxicity against isogenic chicken DT40 cell lines with known DNA damage response pathways - Rad54/Ku70 mutant cell line (AID 743015); conditions: DT40 Rad54/Ku70 mutant viability, CellTiter-Glo, 40 h; activity change, negative = cytotoxicity: at 66.8 µM (top of the series) unless noted; note: nearly all actives have a fitted effect of over 60% in size
# [18] = biological target: Glucocorticoid receptor (Homo sapiens) (UniProt P04150); test: qHTS assay to identify small molecule agonists of the glucocorticoid receptor (GR) signaling pathway (AID 720691; active = well fitted activation curve with a large enough effect in the signal ratio in the repeat runs, not every such curve was filed as active; inconclusive = weak or mixed curves, or effect the other way; inactive = no such curve, though single readings can be large or run the other way; the % refers to the signal ratio); conditions: GR-bla HeLa, beta-lactamase reporter ratio, 18 h; activation: at 62.4 µM (top of the series) unless noted
# Procedure, shortened: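 Cells: GR-bla HeLa, endogenous GR with stably integrated GRE-beta-lactamase reporter. Treatment 18 h, 37 C, compounds delivered in DMSO. Detection via LiveBLAzer B/G FRET substrate, 2 h RT, fluorescence intensity.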
# Potency is the fitted concentration of half-maximal effect; tags give direction and shape of the fitted curve or compound fluorescence and quenching.
smiles,measurement,setting,value
Nc1ncnc(Nc2ccc(Cl)cc2)n1,Potency,[1],inactive
same,Potency,[2],inconclusive: 33.5 µM [single point]
same,Potency,[3],active: 23.7 µM
same,Potency,[4],"inconclusive: 13.3 µM [rising, partial curve]"
same,Potency,[5],"inconclusive: 13.3 µM [cytotoxic, single point]"
COC1[C@@H](O[C@@H]2O[C@H](C)[C@@H](O[C@H]3C[C@@](C)(O)[C@H](OC(=O)CC(C)C)[C@H](C)O3)[C@H](N(C)C)[C@H]2O)[C@@H](CC=O)C[C@@H](C)[C@@H](O)/C=C/C=C/C[C@@H](C)OC(=O)C[C@H]1OC(C)=O (some centres undefined),Potency,[1],inactive
same,Potency,[6],inconclusive: 14.3 µM [cytotoxic]
same,Potency,[5],"inconclusive: 0.902 µM [rising, partial curve, poor fit]"
same,Potency,[7],inactive
CC[C@@H](C(=O)O)[C@@H]1O[C@@H]([C@@H](C)[C@H](O)[C@H](C)C(=O)[C@H](CC)[C@H]2O[C@]3(C=C[C@@H](O)[C@]4(CC[C@@](C)([C@H]5CC[C@](O)(CC)[C@H](C)O5)O4)O3)[C@H](C)C[C@@H]2C)[C@@H](C)C[C@@H]1C,Potency,[1],active: 3.76 µM
same,Potency,[2],"inconclusive: 0.668 µM [activator, partial curve]"
same,Potency,[8],inconclusive: 0.535 µM [activator]
same,Potency,[9],"inconclusive: 2.39 µM [cytotoxic, full curve]"
same,Potency,[10],"inconclusive: 0.535 µM [cytotoxic, full curve, poor fit]"
same,Potency,[11],"inconclusive: 1.88 µM [cytotoxic, full curve]"
same,Potency,[12],active: 0.15 µM
same,Potency,[13],"inconclusive: 0.0841 µM [inhibitor, partial curve, poor fit]"
same,Potency,[14],inconclusive: 23.9 µM
same,Potency,[15],active: 0.151 µM
same,Potency,[3],"inconclusive: 6.68 µM [inhibitor, full curve]"
same,Potency,[4],"inconclusive: 6.68 µM [falling, full curve]"
same,Potency,[5],active: 6.68 µM
same,Potency,[16],inactive
same,Potency,[7],inconclusive: 6.01 µM [activator]
CCC1OC(=O)C[C@@H](O)[C@H](C)[C@@H](O[C@@H]2O[C@H](C)C[C@H](N(C)C)[C@H]2O)[C@@H](CC=O)C[C@@H](C)C(=O)/C=C/[C@]2(C)OC2C1C (some centres undefined),Potency,[1],"inconclusive: 33.5 µM [activator, partial curve, poor fit] and active: 29.8 µM"
same,Potency,[2],"inconclusive: 13.3 µM [inhibitor, single point]"
same,Potency,[17],active: 16.8 µM and active: 7.5 µM
same,Potency,[10],inconclusive: 26.8 µM [cytotoxic]
same,Potency,[11],"inconclusive: 23.7 µM [cytotoxic, partial curve]"
same,Potency,[14],active: 16.9 µM [inconclusive]
same,"activity, negative = inhibition",[14],inconclusive: -20.4%
same,Potency,[15],"inconclusive: 26.8 µM [cytotoxic, single point]"
same,Potency,[3],"inconclusive: 33.5 µM [inhibitor, single point]"
same,activation,[3],inconclusive: 3.41% [phenotype inactive]
same,Potency,[4],"inconclusive: 26.6 µM [rising, partial curve] and inconclusive: 21.1 µM [rising, partial curve]"
same,Potency,[5],"inconclusive: 13.3 µM [cytotoxic, full curve] and inconclusive: 23.7 µM [cytotoxic, partial curve]"
same,Potency,[16],"inconclusive: 33.5 µM [cytotoxic, single point]"
same,Potency,[7],"inconclusive: 12 µM [rising, partial curve] and inconclusive: 23.9 µM [rising, partial curve]"
COc1cc(-c2ccc(-[n+]3nc(-c4ccccc4)nn3-c3ccc([N+](=O)[O-])cc3)c(OC)c2)ccc1-[n+]1nc(-c2ccccc2)nn1-c1ccc([N+](=O)[O-])cc1,Potency,[1],"inconclusive: 11.9 µM [cytotoxic, full curve]"
same,Potency,[2],"inconclusive: 1.19 µM [inhibitor, single point]"
same,Potency,[18],"inconclusive: 6.01 µM [cytotoxic, full curve]"
same,Potency,[8],"inconclusive: 10.7 µM [cytotoxic, full curve]"
same,Potency,[6],active: 5.96 µM
same,Potency,[17],active: 5.31 µM
same,Potency,[10],"inconclusive: 6.01 µM [cytotoxic, full curve, poor fit]"
same,Potency,[11],"inconclusive: 33.5 µM [cytotoxic, single point]"
same,Potency,[12],active: 26.6 µM
same,activation,[13],inconclusive: -7.98% [phenotype inactive]
same,Potency,[14],"inconclusive: 6.01 µM [cytotoxic, full curve]"
same,Potency,[15],active: 4.25 µM
same,Potency,[3],"inconclusive: 2.37 µM [inhibitor, partial curve]"
same,Potency,[4],"inconclusive: 13.3 µM [falling, partial curve]"
same,Potency,[5],"inconclusive: 29.8 µM [cytotoxic, partial curve]"
same,Potency,[7],"inconclusive: 10.7 µM [cytotoxic, full curve]"
